Laboratory results reported in article PMC4336329 (PLoS ONE, 2015).
Out of some 310,000 compounds screened, about 14,000 (4.5%) showed an effect of 50% or more. Effects have a minus sign here. Some of the results follow. Where a SMILES comes first, the peptide text is derived from it. The star is where a group is joined. Cbz = O=C(OCc1ccccc1)*

Target: human ether-à-go-go-related gene (hERG) potassium channel (human, UniProt Q12809)
Experiment: primary screen, population patch clamp on CHO cells stably expressing hERG
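Also: peak tail current of the secondary pulse compared with the same well before compound.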

human ether-à-go-go-related gene (hERG) potassium channel, sequence (Q12809 whole entry, looked up): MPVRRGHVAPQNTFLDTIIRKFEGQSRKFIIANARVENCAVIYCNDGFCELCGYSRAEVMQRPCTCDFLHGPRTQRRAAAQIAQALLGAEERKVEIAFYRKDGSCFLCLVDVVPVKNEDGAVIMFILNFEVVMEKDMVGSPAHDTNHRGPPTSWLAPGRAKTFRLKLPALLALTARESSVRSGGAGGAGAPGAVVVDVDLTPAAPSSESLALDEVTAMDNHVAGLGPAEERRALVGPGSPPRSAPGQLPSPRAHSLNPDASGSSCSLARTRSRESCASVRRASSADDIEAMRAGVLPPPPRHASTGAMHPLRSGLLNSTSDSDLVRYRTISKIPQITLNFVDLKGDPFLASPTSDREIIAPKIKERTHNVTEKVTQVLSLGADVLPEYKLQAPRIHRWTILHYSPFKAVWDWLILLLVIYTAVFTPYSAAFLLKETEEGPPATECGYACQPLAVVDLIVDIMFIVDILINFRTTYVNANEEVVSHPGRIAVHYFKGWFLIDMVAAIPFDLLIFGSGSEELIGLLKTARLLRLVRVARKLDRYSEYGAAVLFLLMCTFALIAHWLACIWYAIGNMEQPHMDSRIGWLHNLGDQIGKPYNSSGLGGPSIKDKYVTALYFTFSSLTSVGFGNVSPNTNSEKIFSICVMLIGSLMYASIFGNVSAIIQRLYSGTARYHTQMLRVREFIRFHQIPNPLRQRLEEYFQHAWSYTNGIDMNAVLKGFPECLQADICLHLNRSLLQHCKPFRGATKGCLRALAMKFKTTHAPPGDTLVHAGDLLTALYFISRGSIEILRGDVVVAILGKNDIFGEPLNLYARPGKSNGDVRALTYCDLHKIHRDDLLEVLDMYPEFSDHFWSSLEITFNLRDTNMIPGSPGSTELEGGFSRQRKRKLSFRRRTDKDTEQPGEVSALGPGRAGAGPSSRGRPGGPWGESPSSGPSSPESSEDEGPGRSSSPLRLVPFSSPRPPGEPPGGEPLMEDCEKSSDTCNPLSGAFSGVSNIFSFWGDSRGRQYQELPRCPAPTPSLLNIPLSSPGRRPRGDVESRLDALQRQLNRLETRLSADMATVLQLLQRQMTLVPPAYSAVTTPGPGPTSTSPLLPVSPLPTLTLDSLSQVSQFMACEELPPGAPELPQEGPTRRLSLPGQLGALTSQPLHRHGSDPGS

Structure (SMILES)	hERG current change (%, negative = inhibition) at 10uM
CCc1ccc(NC(=O)C2C3/C=C\CCCCC32)cc1 (stereo not shown)	29.3%
CCCCC1=CC2=CC(=O)C(C)(OC(=O)CC)C(=O)C2=CN1Cc1ccco1 (stereo not shown)	-32%
NNC(=S)Nc1ccc(S(=O)(=O)N2CCCCC2)cc1	11.7%
COc1ccnc(Nc2cccc(C)c2)c1C#N	-35%
CC(C)CCNC(=O)c1cc(S(=O)(=O)N2CCc3ccccc32)cn1C	10.2%
Cl.c1ccc(N2CCN(c3nc(NCc4ccco4)c4ccccc4n3)CC2)cc1	-73.6%
Cc1cc(=O)[nH]c(SCC(=O)c2ccccc2)c1C#N	-8.43%
Cc1cccc(Nc2ccc(S(=O)(=O)N3CCOCC3)cc2[N+](=O)[O-])c1	-30.2%
CC(C)c1onc(C(=O)Nc2cccnc2Cl)c1[N+](=O)[O-]	12.4%
FC(F)(F)c1cnc(N2CCC(=NOCc3ccc(Cl)cc3)CC2)c(Cl)c1	29.6%
Cc1ccc(NC(=O)C2CCN(S(=O)(=O)c3c(C)noc3/C=C/N(C)C)CC2)cc1	-5.19%
CC(C)n1ncc2c(C(=O)NCc3ccccc3CN(C)C)cc(C3CC3)nc21	-21.5%
Cc1cc(C)nc(Sc2c(C)n[nH]c2C)n1	4.59%
CC1(C)CC(=O)C(Sc2ccccc2C(=O)O)=C(O)C1	17%
CC1CCCCC1NC(=O)CSc1nnc(CC(=O)Nc2ccccc2F)n1C (stereo not shown)	15.4%
COc1ccccc1NS(=O)(=O)c1ccc(Cl)c(NC(=O)C(C)N2C(=O)c3ccccc3C2=O)c1 (stereo not shown)	-28.3%
C/C(=N\N=C\c1ccccc1F)c1nnn(-c2nonc2N)c1C	-10.9%
CC(C)NC(=O)c1ccc2c(c1)N(CC(=O)N1CCOCC1)C(=O)C(C)(C)O2	-7.88%
CC1CCCC(NC(=O)COC(=O)c2cccnc2Cl)C1C (stereo not shown)	-2.95%
Cn1c(-c2nnn(-c3ccc(F)cc3)n2)cc2ccccc21	22.4%
COc1ccc(CCNCC(O)COc2cccc(Br)c2)cc1 (stereo not shown)	-50%
O=C(c1ccc2ccccc2c1)c1c[nH]cc1-c1ccccc1	11.2%

Structure (SMILES)	hERG current change (%, negative = inhibition) at 10uM
CCCCCCN(C(=O)CCCCCN1C(=O)NC(c2ccc(-c3ccccc3)cc2)C(C(=O)OCc2ccccc2)=C1C)C(C)C(=O)NCCCC (stereo not shown)	15.1%
O=C(CSCc1ccccc1)Nc1ccc2c(c1)OCO2	7.4%
Cc1ccc(/C=N/n2c(-c3ccccc3)n[nH]c2=S)cc1	13.7%
CCOc1cc(NC(=S)NCCCN(C)C)c(OCC)cc1NC(=O)c1cccs1	-39.2%
Cc1ccnc(NC(=O)CSc2ccc3c(c2)OCCO3)c1	-4.94%
O=C(O)c1ccc2c(c1)N(Cc1cccc(F)c1)C(=O)CS2	-8.7%
CC1(C)C2CCC1(C)C(OC(=O)c1ccccc1C(=O)O)C2 (stereo not shown)	17.1%
CN(C)/C=N/c1cc(=O)[nH]c(=O)n1Cc1ccccc1	-0.304%
COc1cccc(C(=O)n2ccc(-c3cccs3)n2)c1	4.32%
COc1ccc(S(=O)(=O)Cc2ccc(C(=O)NC(C)C)o2)cc1	12.3%
Cc1cccc(N2C(=O)C(O)=C(C(=O)c3cccs3)C2c2ccccc2)n1 (stereo not shown)	5.43%
CCOC(=O)C1(Cc2ccc(Cl)cc2)CCN(C(=O)c2cscn2)CC1	-37.4%
O=C(O)c1ccc(CNCc2ccc(Cl)cc2)cc1	1.06%
CN(C)c1ccc(P(=O)(Nc2ccccc2)N2CCOCC2)c(NC(=O)c2cccs2)c1 (stereo not shown)	10.7%
Cc1ccc(Sc2ccc(C(=O)N3CCOCC3)cc2[N+](=O)[O-])cc1	-32.3%
CC(NC(=O)NCCCC(=O)O)(C(F)(F)F)C(F)(F)F	11.3%
Cc1cc2oc(=O)cc(CN3CCOCC3)c2cc1C(C)C	-19.7%
Cc1cc(C)cc(C(=O)Nc2nnc(SCC(=O)N3CCCc4ccccc43)s2)c1	-0.589%
COc1ccc(C(=O)N2CCCC(CNC(=O)c3ccc(F)cc3)C2)cc1OC (stereo not shown)	3.14%
COCCN(CC(=O)Nc1ccccc1C(F)(F)F)C(=O)/C=C/c1cc(Cl)c2c(c1)OCO2	-17.9%
O=C(Nc1ccon1)c1sc2cc(F)ccc2c1Cl	8.23%
CC(=O)NC1CC2CCCC(C1)N2CC(=O)N1CCCc2ccccc21 (stereo not shown)	-7.15%

Structure (SMILES)	hERG current change (%, negative = inhibition) at 10uM
Cc1cccc(NC(=O)Cn2cc(C(=O)c3ccco3)c3ccccc32)c1	-6.56%
O=C(Nc1ccccc1OCc1ccccc1)c1ccccc1Br	16%
O=C(CN1C(=O)C2CC=CCC2C1=O)N1CCN(c2ccc([N+](=O)[O-])cc2)CC1 (stereo not shown)	-71.6%
CCCCCCN1CC(=O)N2Cc3[nH]c4ccccc4c3C[C@H]2C1=O	-9.11%
CCCN1CNC(=S)N(c2ccc(C(=O)OCC)cc2)C1	13.6%
O=C1OC(N2C(=O)CC[C@H]2C(=O)NCC2CCCO2)c2ccccc21 (stereo partly shown)	15.7%
O=C(NC1=NCCS1)c1cccc(S(=O)(=O)N2CCc3ccccc32)c1	17.4%
FC(F)Oc1ccc(NC(=S)NCC2COc3ccccc3O2)cc1 (stereo not shown)	-5.83%
CC(=O)n1cc(Nc2ccc([N+](=O)[O-])cc2)c2ccccc21	-0.324%
CCCN(CCC)C1=CC(=[N+]2CCCC2)CC(C)(C)C1.[I-]	-72.4%
COc1ccc(-n2c3c(cc(C(=O)N4CCCCC4)c2=O)C(=O)CC(C)(C)C3)cc1	17.4%
O=C(N/C(=C\c1ccc([N+](=O)[O-])cc1)C(=O)N1CCCCC1)c1ccco1	-70.3%
Cc1cc(C)c2nc(NC(=O)c3ccc(OCC4CCCO4)cc3)sc2c1 (stereo not shown)	-6.31%
c1ccc2oc(-c3csc(NCC4CCCO4)n3)cc2c1 (stereo not shown)	-9.3%
CCC(C)N(C(=O)CSc1nnnn1-c1ccccc1OC)C1CCS(=O)(=O)C1 (stereo not shown)	-37.2%
CC1(c2ccc(C#N)cc2)NC(=O)N(CC(=O)Nc2cc(S(=O)(=O)N3CCOCC3)ccc2Cl)C1=O (stereo not shown)	9.01%
CCCCN(CCCC)CC(O)COc1ccc(Br)cc1 (stereo not shown)	-74.4%
Cc1cc(NS(=O)(=O)Cc2ccccc2)no1	0.859%
CCc1cc(CNC(=O)C2CCC(=O)N(Cc3ccc(Cl)cc3)C2)on1 (stereo not shown)	-43.6%
COc1ccc(C(=O)N2CCCc3ccccc32)cc1	4.42%
CN(C)C(=O)CCN1CCOCC1	14.7%
CCS(=O)(=O)c1ccc2oc(SCC(=O)N3c4ccccc4CC3C)nc2c1 (stereo not shown)	-13.7%

Structure (SMILES)	hERG current change (%, negative = inhibition) at 10uM
CCCCOc1ccc(C2C(C(=O)c3ccc(C)o3)=C(O)C(=O)N2Cc2ccco2)cc1 (stereo not shown)	12.4%
CCOc1ccccc1NC(=O)c1cccc(N2C(=O)CCC2=O)c1	6.06%
Cc1ccc(-c2nnc(COC(=O)c3cc(=O)[nH]c4ccccc34)o2)cc1	-0.621%
CCCc1cc(=O)[nH]c(SCC(=O)N2CCN(S(=O)(=O)c3ccc(C)cc3C)CC2)n1	13.8%
O=C1C(=O)N(CCCn2ccnc2)C(c2cccnc2)/C1=C(/O)c1ccc(F)cc1 (stereo not shown)	6.47%
CC(C)(C)C(=O)OCc1nc(-c2ccc(F)cc2)cs1	1.68%
COCCNC(=S)N/N=C(\C)c1cc2ccccc2o1	-33.7%
COc1ccc2oc(=O)c(-c3cn4ccc(C)cc4n3)cc2c1	15.1%
COc1ccc(OC)c(Nc2nc(N)nc(CSc3nnc(-c4ccncc4)o3)n2)c1	10.5%
CCOc1ccc(C)cc1S(=O)(=O)NC1CCCCC1	-24.9%
CCOc1ccc(-n2c(SCC(=O)NC3CCS(=O)(=O)C3)nnc2-c2cccnc2)cc1 (stereo not shown)	22.8%
O=C(CSc1nc2ccccc2o1)Nc1nc2ccccc2s1	14.4%
COC(=O)C(CO)NC(=O)C(C)NC(=O)CNC(=O)OCc1ccccc1 (stereo not drawn) (Cbz-Gly-Ala-Ser-OMe; configuration not given here)	28.7%
CCc1ccccc1N(CC(=O)NCCc1ccccc1)C(=O)CCC(=O)Nc1ccccn1	-18.8%
CCCc1cc(C(=O)N2CCC(N3CCC(C(=O)NC(C)C)CC3)CC2)n(C)n1	0.88%
O=[N+]([O-])c1cc2c(cc1/C=N/n1cnnc1)OCO2	10.4%
CN(CC(=O)NC1CCCCCCC1)S(=O)(=O)c1cnc[nH]1	-12.1%
CCCCNC(=O)CNC(=S)N(Cc1ccccc1F)C1CCCCC1	12.7%
COc1ccc([C@H]2CC(=O)C=C(c3ccc(F)cc3OCc3ccccc3)C2)cc1OC	12.1%
O=C(CSc1nnc(NC(=O)C2CC2)s1)NCc1ccccc1	9.19%
CCOC(=O)N1CCN(C(=O)CN2C(=O)COc3ccc(C)cc32)CC1	1.37%
COc1ccc([N+](=O)[O-])cc1NC(=O)C(C)N(C)Cc1cccc(OC)c1OC (stereo not shown)	-1.23%
